Hit rate of the full screen: of about 420,000 compounds, about 64,000 (15%) were called active. Inconclusive means that the source gave no clear call. Such entries were picked first, then a sample of the others. Calls come from the whole dose curve; as a rule, active = well fitted inhibition curve with a large enough effect; inconclusive = small, poorly fitted or top-dose-only effect; inactive = flat fitted curve, though single readings scatter. Potencies of inconclusive entries are left out as doubtful fits.
Experiment: qHTS for Inhibitors of human tyrosyl-DNA phosphodiesterase 1 (TDP1): qHTS in cells in absence of CPT; note: nearly all actives have a fitted effect of over 55% in size
Settings: DT40 Tdp1-/- hTDP1 cells, no CPT, ATP luminescence, 48 h; activity change, negative = growth inhibition: at 46.2 µM (top of the series) unless noted
Outline: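 Growth of hTDP1-complemented DT40 Tdp1-knockout cells is measured by ATP luminescence after at least 48 hr compound exposure at 37 °C, with DMSO substituting for the 20 nM CPT used in the parallel screen.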
% is set by controls: 0 for no effect and ±100 for the full control effect; potency is the fitted concentration of half-maximal effect; tags give direction and shape of the fitted curve.

| Structure (SMILES) | Potency | activity change, negative = growth inhibition |
| --- | --- | --- |
| CCOC(=O)C1(C)CCCCCN1C(=O)c1ccc(OC)c(C(F)(F)F)c1 (stereo unspecified) | active: 10.3 µM | – |
| O=C1c2ccccc2C(=O)C12OC2c1ccc(Cl)cc1Cl (stereo unspecified) | active: 9.2 µM | – |
| Cc1ccc(/C=C/c2ccc(=O)n(Cc3ccccc3Cl)n2)cc1 | active: 25.9 µM | – |
| O=C(CSc1nccn1Cc1ccccc1)NCc1ccc(F)cc1 | inconclusive [inhibitor, single point] | – |
| CC(C)N(Cc1ccccc1)C(=S)Nc1ccccc1F | inconclusive [inhibitor, full curve, poor fit] | – |
| CCOc1cc(C(=S)N2CCOCC2)cc(Br)c1OS(=O)(=O)c1ccccc1 | active: 23.1 µM | – |
| O=C(Nc1ccc(Cl)cc1)c1cccc(N2C(=O)C3C4CCC(C4)C3C2=O)c1 (stereo unspecified) | active: 14.6 µM | – |
| COc1ccc(-n2nc3ccc(NC(=O)c4ccc(-c5cc(Cl)ccc5Cl)o4)cc3n2)cc1 | inconclusive [inhibitor, full curve] | – |
| COc1cc(NC(=O)CSc2nnc(NC(C)C)s2)cc(OC)c1OC | inconclusive [inhibitor, partial curve] | – |
| COc1ccc(CN2CCN(C(C)C(=O)NC(C)c3ccc(F)cc3)CC2)cc1F (stereo unspecified) | inconclusive [inhibitor, partial curve, poor fit] | – |
| C/C(=N\NC(=O)c1ccc2c(c1)OCO2)c1ccc(NC(=O)CCCC(=O)O)cc1 | – | inactive: 4.99% |
| COc1ccc(CN(C)C(=O)c2sccc2-c2ccccc2)c(OC)c1 | inconclusive [inhibitor, single point] | – |
| Cc1ccc(N2N=C(C(=O)O)CCC2=O)cc1Cl | – | inactive: 13% |
| Cc1ccccc1C(=O)Nc1nc2n(n1)C(c1ccccc1)CC(=O)N2 (stereo unspecified) | – | inactive: -3.65% |
| CCn1c(SCc2ccccc2)nnc1-c1ccc(S(=O)(=O)N2CCCCC2)cc1 | inconclusive [inhibitor, partial curve] | – |
| C=CCNc1nc(Nc2ccc(OC)cc2OC)nc(OCC)n1 | inconclusive [inhibitor, single point] | – |
| CCOC(=O)c1[nH]cnc1C(=O)Nc1ccc([N+](=O)[O-])cc1 | – | inactive: -23.8% |
| CCN1C(=O)NC(c2ccccc2)(c2ccccc2)C1=O | – | inactive: -6.54% |
| COc1cccc(CC(=O)Nc2sc3c(c2C(N)=O)CCCC3)c1 | inconclusive [inhibitor, single point] | – |
| CCc1ccc2[nH]c(=O)c(CN(Cc3ccc4c(c3)OCO4)C(=O)c3ccco3)cc2c1 | inconclusive [inhibitor, single point] | – |
| O=C(CNS(=O)(=O)c1ccc(Br)s1)NCC1COc2ccccc2O1 (stereo unspecified) | inconclusive [inhibitor, single point] | – |
